Measured values from article PMC7819943, “Rice protein-binding microarrays: a tool to detect cis-acting elements near promoter regions in rice”.
Some of the results follow.

Target: T1, OsWOX13 (Oryza sativa, UniProt Q5QMM3 1-267)
T1 sequence: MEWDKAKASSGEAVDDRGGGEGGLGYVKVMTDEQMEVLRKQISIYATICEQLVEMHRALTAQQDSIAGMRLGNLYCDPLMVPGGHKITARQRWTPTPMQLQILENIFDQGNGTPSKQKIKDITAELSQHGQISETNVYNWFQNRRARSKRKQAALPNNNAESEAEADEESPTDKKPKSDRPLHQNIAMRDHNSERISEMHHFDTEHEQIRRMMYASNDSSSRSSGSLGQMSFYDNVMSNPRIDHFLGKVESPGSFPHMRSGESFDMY
Assay: protein-binding microarray (RPBM); PBS, 2% BSA, 51.3 ng/ul salmon testes DNA, 50 uM zinc acetate, 200 nM TF, 25 C, 1 h; high values mean tight binding
Details: protein: recombinant; tags: N-terminal polyhistidine and DsRed monomer fusion (pET32a); label: CyDye5-dUTP incorporated in the synthesized complementary strand; 3' TTTTT single-stranded linker to array surface; dsDNA, one strand shown
How it was run: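 Binding signal is reported as fluorescence intensity per feature (arbitrary units) from an Axon 4000B scanner. Incubation used 200 nM of each Ni–NTA-purified, N-terminally polyhistidine- and DsRed-fused transcription factor from E. coli BL21-CodonPlus on a double-stranded custom Agilent array for 1 h at 25 °C, with 50 µM zinc acetate in the buffer, followed by washing.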

Sequence | binding signal
ACGAATTGAACAATCAATTCACCCGGAGAGGTACGTCTGCCGGAGTCACCTAGTGCAG | 27000 fluorescence intensity (a.u.)
TACTGAGATGGATAGATTAGAGAAACAACTCTGTTGTCTGCGGAGTCACCTAGTGCAG | 4360 fluorescence intensity (a.u.)
ACAGTAATCAGTCAGATGGAAAAGGTATACCTGAGGTTCCCGGAGTCACCTAGTGCAG | 4150 fluorescence intensity (a.u.)
GTTAGAATTGAATGAAAGAGGGAAGATGAACAGTTAGGATCGGAGTCACCTAGTGCAG | 4820 fluorescence intensity (a.u.)
AGATAAATTAGGTGCTATTAAAGTGAAGCGTGAACTTGCACGGAGTCACCTAGTGCAG | 10800 fluorescence intensity (a.u.)
ATTGATTTGTGCAGTCACCCGGCCCACAGGCCACAGCTACCGGAGTCACCTAGTGCAG | 22900 fluorescence intensity (a.u.)
AGAGACTGGTGATGGACTTTACTCTTTTCTTCTCCAACACCGGAGTCACCTAGTGCAG | 6590 fluorescence intensity (a.u.)
GTGAAATTGCCAACTTCATGTTAAATCTTGCATATGGATTCGGAGTCACCTAGTGCAG | 3600 fluorescence intensity (a.u.)
GTCGATTGAACAAACAGATATTGTCCGCTCTCTTTACACACGGAGTCACCTAGTGCAG | 19700 fluorescence intensity (a.u.)
AGTTAAATTAAGTTAGTAATTAACACAAGCCCTTAATGTGCGGAGTCACCTAGTGCAG | 22300 fluorescence intensity (a.u.)
GTAGAGTGATGATTGGAAATGTGTTTACTTTGAATTTTGACGGAGTCACCTAGTGCAG | 26600 fluorescence intensity (a.u.)
ACCATGATCGAAATATAATTAGCTTACTATGATACCGATGCGGAGTCACCTAGTGCAG | 16000 fluorescence intensity (a.u.)
CATGTAATTTTAAACCTTTAGATCTATTACAAGATTTGTTCGGAGTCACCTAGTGCAG | 6690 fluorescence intensity (a.u.)
AGAACTATAGATCACCAATCAGTGACAAACAAAATTTCCCCGGAGTCACCTAGTGCAG | 10300 fluorescence intensity (a.u.)
CCATAAATTGGAGGACATAATGTGAACGTTTTCCTCCAAACGGAGTCACCTAGTGCAG | 36700 fluorescence intensity (a.u.)
GAATGATTTAGAATGAATTATGTTGCTGTGAATGATTTAGCGGAGTCACCTAGTGCAG | 20000 fluorescence intensity (a.u.)
CGTCAAATCATTCCAATTTCAATCAAACTTCTAATTTTAGCGGAGTCACCTAGTGCAG | 10600 fluorescence intensity (a.u.)
TAAATATACTTATAATTTGACAAATCACTAAGTCATAATTCGGAGTCACCTAGTGCAG | 7660 fluorescence intensity (a.u.)
TTCTTCCTTATTATCAATTTAAATTTGAATTTAGATGAAACGGAGTCACCTAGTGCAG | 11400 fluorescence intensity (a.u.)
GGCATGGTGATTTGGTACTAATGCTAAATCTTGTTTGTTGCGGAGTCACCTAGTGCAG | 4910 fluorescence intensity (a.u.)
GCGTCATAACTCATAAATTATGAAATGTGAAATGGTGGAACGGAGTCACCTAGTGCAG | 6890 fluorescence intensity (a.u.)

Sequence | binding signal
GTTAAAATGTTAATTAATCGTGTCAATCGAGTAAACAACCCGGAGTCACCTAGTGCAG | 19900 fluorescence intensity (a.u.)
CGATGATTGTGCTAGTATACATGTGTTGACGATGTATTGTCGGAGTCACCTAGTGCAG | 35500 fluorescence intensity (a.u.)
TTCTTGATTCCTTGATTATTGCCTTATTTCAGTGTGTCGCCGGAGTCACCTAGTGCAG | 31200 fluorescence intensity (a.u.)
GCAGCTGGGACTCCGAGAGTAGCAGCCTAGCAGGAACACGCGGAGTCACCTAGTGCAG | 19300 fluorescence intensity (a.u.)
CGTATTAATTAAGGCCTGTTGGGTTTAGAGGAATTTCGCGCGGAGTCACCTAGTGCAG | 15100 fluorescence intensity (a.u.)
CTGATTAGCATGCAGGATAGGAACTGATCTGTACTTGTCGCGGAGTCACCTAGTGCAG | 22300 fluorescence intensity (a.u.)
CCGAAATTTCACAAATTTCGTTTCTTTCAGCCACCACCGTCGGAGTCACCTAGTGCAG | 14300 fluorescence intensity (a.u.)
CCCTGATTTGGTTACTTCACTTCAATTATGGTAGTAGGGCCGGAGTCACCTAGTGCAG | 36200 fluorescence intensity (a.u.)
GCACCGGATTGGCTCCCTCTCCCGCATCACGCTACTGCCACGGAGTCACCTAGTGCAG | 3220 fluorescence intensity (a.u.)
GAGTTAGCCATGGCCTGTCAATTACTGGAACTCTGTTGTACGGAGTCACCTAGTGCAG | 4480 fluorescence intensity (a.u.)
CTTCATTAGTGATTAGTTGAAATGTAGATCAGAATTACCTCGGAGTCACCTAGTGCAG | 8550 fluorescence intensity (a.u.)
GTTTAATTTGTGATCCATGATAGTGAGAGTCGATTTGTGACGGAGTCACCTAGTGCAG | 19000 fluorescence intensity (a.u.)
CTACTATCAATCGACCAATTCCAATCTCATCGTTACAGGACGGAGTCACCTAGTGCAG | 4190 fluorescence intensity (a.u.)
TTATTGTGATAACTGCCATTGATAAGGACAGAGAAGTTAGCGGAGTCACCTAGTGCAG | 3160 fluorescence intensity (a.u.)
CCTAATTAATCCATAATTAGAGAATGTTTACTGTAACATCCGGAGTCACCTAGTGCAG | 50600 fluorescence intensity (a.u.)
TGAAAGAAAATTAATTATCTACTTCATTCGCTCGGATACTCGGAGTCACCTAGTGCAG | 18800 fluorescence intensity (a.u.)
GCAATAATTGCTAACCGTGCCGTTCTTATTCCCCAATCATCGGAGTCACCTAGTGCAG | 46100 fluorescence intensity (a.u.)
AAGAGATGATGACGATAACTGTGGAAGTGGCAGACTGGCACGGAGTCACCTAGTGCAG | 8880 fluorescence intensity (a.u.)
GATTAATTAGGTTTAATAAATTCGTCTCGCAGTTACAAGGCGGAGTCACCTAGTGCAG | 35200 fluorescence intensity (a.u.)
AATAAATCATTACAACCAGTAAATGTGATGTCAATAGATGCGGAGTCACCTAGTGCAG | 11900 fluorescence intensity (a.u.)
ATTAATTAAAATCCAGCTGTAAGGTAAGGCCATTCCAAGCCGGAGTCACCTAGTGCAG | 15500 fluorescence intensity (a.u.)

Sequence | binding signal
CACGTTAAAATTGAAAGTTTAATTGAAATTGAAACGATATCGGAGTCACCTAGTGCAG | 7700 fluorescence intensity (a.u.)
CACTATCATATTGGGTAATTAACTTGGGTAAACTTCATCGCGGAGTCACCTAGTGCAG | 6120 fluorescence intensity (a.u.)
AATAATTATATTGTGAGTAAGCTGAAATAAGAAACTACGTCGGAGTCACCTAGTGCAG | 27300 fluorescence intensity (a.u.)
ACTAACTAATTGTGAATATCTCATTCTCACCGATGCTAAACGGAGTCACCTAGTGCAG | 21400 fluorescence intensity (a.u.)
AAACAAATAGACATGATAGATTAATATGAAATATGTCATTCGGAGTCACCTAGTGCAG | 23800 fluorescence intensity (a.u.)
AAGTACAATTTGTGTAATTGATAATTCGAGGAGTATTAGGCGGAGTCACCTAGTGCAG | 29700 fluorescence intensity (a.u.)
AACCACAATAATCACACACTGATTCCACCGCCGGCTTCTCCGGAGTCACCTAGTGCAG | 4530 fluorescence intensity (a.u.)
GGATAAAATTAGAATTGATGACCACCATATACTATAAGGGCGGAGTCACCTAGTGCAG | 15200 fluorescence intensity (a.u.)
CGAAGATTGAGTCCTTTGAAGCCGAGCTCTCCATGGCCATCGGAGTCACCTAGTGCAG | 17100 fluorescence intensity (a.u.)
AACCAATTTAGCCGATAATTCGGCTAGTCATTCCATAATACGGAGTCACCTAGTGCAG | 7620 fluorescence intensity (a.u.)
ACTAAAATTTTGATATTACTAAATTTTGGAAAGATTTATTCGGAGTCACCTAGTGCAG | 3970 fluorescence intensity (a.u.)
TACAAATTTGCAGTCAGAAGACTTAGCAACAAAGTACTGCCGGAGTCACCTAGTGCAG | 10300 fluorescence intensity (a.u.)
TCCAACACTCAATCAGAAAAGCGAGCCCTGGGCCTTGTTGCGGAGTCACCTAGTGCAG | 4820 fluorescence intensity (a.u.)
AAGTACACATGATTGAGTTGTCGCGGTATATACCTCCTCCCGGAGTCACCTAGTGCAG | 15600 fluorescence intensity (a.u.)
GCCCTGGCCAATTGAGCCCAATCAAGATAGTTCGGCCCATCGGAGTCACCTAGTGCAG | 3400 fluorescence intensity (a.u.)
GCACTAACATAACTGATTAACTGGAATACTGGATCTCTATCGGAGTCACCTAGTGCAG | 25800 fluorescence intensity (a.u.)
AATCGAAGATTGACGCCGGCAGCCAAAGTTGGAGAAGACACGGAGTCACCTAGTGCAG | 4760 fluorescence intensity (a.u.)
CCAAGTTAGCAGTTGGCAGTTGATTGGCACGTCGGTCAAACGGAGTCACCTAGTGCAG | 8380 fluorescence intensity (a.u.)
GACGTCTTGATTGGGAGATTAGCCTTGGCCGCGTGGAATCCGGAGTCACCTAGTGCAG | 41200 fluorescence intensity (a.u.)
CCTTAATTGTGGGGCTGACTGCTATTTTCTATATCATGTGCGGAGTCACCTAGTGCAG | 56000 fluorescence intensity (a.u.)
CCAGACTGCCTAACTGTACAGTCACGGCGCCATCTCGGACCGGAGTCACCTAGTGCAG | 4820 fluorescence intensity (a.u.)

Sequence | binding signal
CACCATAAATTATCGCGTACTCAGTTCATACCACAAGATACGGAGTCACCTAGTGCAG | 7400 fluorescence intensity (a.u.)
AATAAGTCCATGATTAGCTGTAAGTGCTACAGTAACCCACCGGAGTCACCTAGTGCAG | 9230 fluorescence intensity (a.u.)
ATTGTAACATAATTATCACTCCTAGGTTTATTTTCAAGCACGGAGTCACCTAGTGCAG | 23500 fluorescence intensity (a.u.)
CAATAGGGAATAATTAACACCTTACTGTAAATGACAGTTGCGGAGTCACCTAGTGCAG | 5230 fluorescence intensity (a.u.)
TAAAGATATGAAGATTGTTGATTGCTGAAGTTTATGAAAGCGGAGTCACCTAGTGCAG | 4870 fluorescence intensity (a.u.)
GGTTGTTAATTAGAATAGATGGGACCTGAAAGCTTCAGCTCGGAGTCACCTAGTGCAG | 31300 fluorescence intensity (a.u.)
TTTCAATCCGATTGGCGACGGGCGCCGAGGGATTTAGCGCCGGAGTCACCTAGTGCAG | 3250 fluorescence intensity (a.u.)
GGAGGGAGGGAGTATCAATCATTTGAAGAGTTCAGTGACACGGAGTCACCTAGTGCAG | 8040 fluorescence intensity (a.u.)
TAATATTTATAATTAGTGTCCAAACATCCGATGTGATAGGCGGAGTCACCTAGTGCAG | 5870 fluorescence intensity (a.u.)
GTCTAAATGGTTTCAAACAAATAATTAAGAAGGACATCTACGGAGTCACCTAGTGCAG | 4200 fluorescence intensity (a.u.)
GTCTAGAGGTTAATTTGCACTCATCCAATAATTTAGAGGGCGGAGTCACCTAGTGCAG | 7060 fluorescence intensity (a.u.)
TTTAATTAATCATGTGTTATCGAGCTTCTTAATTTTGCATCGGAGTCACCTAGTGCAG | 31100 fluorescence intensity (a.u.)
TGGCATAATTTTGCTTATTGATAGTTCATTTGGGCATGCCCGGAGTCACCTAGTGCAG | 23100 fluorescence intensity (a.u.)
TTAACCAAAATTTTAATTTTAATTTTGACGTGAACTAAACCGGAGTCACCTAGTGCAG | 13100 fluorescence intensity (a.u.)
TACTTAAATTACCAAATTCGGTCGTTAACACCAACACTCTCGGAGTCACCTAGTGCAG | 15000 fluorescence intensity (a.u.)
GTGCTGTATGTTGATTATATACAGGTTGAGTGCAACCTGCCGGAGTCACCTAGTGCAG | 3580 fluorescence intensity (a.u.)
ATATCACGTGATACTTGATAGAATCACGTGATATCACCCCCGGAGTCACCTAGTGCAG | 3390 fluorescence intensity (a.u.)
GTTTTGTCAATTAAATTGTACTCAACTGCCAAGTTGATGTCGGAGTCACCTAGTGCAG | 31700 fluorescence intensity (a.u.)
TCCCCTCAATCAATCAAGCTTAAGCTAAGCTGGGCGCGACCGGAGTCACCTAGTGCAG | 25900 fluorescence intensity (a.u.)
AGTTTTGATTGTTTTGAATACCTGGACTCTCTCACTATATCGGAGTCACCTAGTGCAG | 27200 fluorescence intensity (a.u.)
CTAGATTATTATATTTTAGAACGGAGTTAGAATTATTATGCGGAGTCACCTAGTGCAG | 13300 fluorescence intensity (a.u.)
